In PubChem BioAssay AID1159614 (National Center for Advancing Translational Sciences (NCATS), 2016):
In all, about 45,000 compounds went through this assay and about 65 (0.1%) were called active. Calls follow the shape of the dose curve; as a rule, active = well fitted activation curve with a large enough effect; inconclusive = small, poorly fitted or top-dose-only effect; inactive = no such curve, though single readings can be large or run the other way. The list shows a part of the results.

biological target: Galactocerebrosidase (Homo sapiens) (UniProt P54803); assay: A Novel Cell-Based Assay to Identify Small Molecules for B -Galactocerebrosidase; conditions: 145M-Twi-hGALC-G270D cells (Twitcher mouse brain line with human GALC G270D), HMU-beta-Gal fluorescence, 48 h; series mostly up to 57.5 µM; activation: at the top concentration; also: 0% is about no effect; nearly all actives have a fitted effect of over 65% in size
UniProt P54803, sequence (P54803 whole entry, looked up): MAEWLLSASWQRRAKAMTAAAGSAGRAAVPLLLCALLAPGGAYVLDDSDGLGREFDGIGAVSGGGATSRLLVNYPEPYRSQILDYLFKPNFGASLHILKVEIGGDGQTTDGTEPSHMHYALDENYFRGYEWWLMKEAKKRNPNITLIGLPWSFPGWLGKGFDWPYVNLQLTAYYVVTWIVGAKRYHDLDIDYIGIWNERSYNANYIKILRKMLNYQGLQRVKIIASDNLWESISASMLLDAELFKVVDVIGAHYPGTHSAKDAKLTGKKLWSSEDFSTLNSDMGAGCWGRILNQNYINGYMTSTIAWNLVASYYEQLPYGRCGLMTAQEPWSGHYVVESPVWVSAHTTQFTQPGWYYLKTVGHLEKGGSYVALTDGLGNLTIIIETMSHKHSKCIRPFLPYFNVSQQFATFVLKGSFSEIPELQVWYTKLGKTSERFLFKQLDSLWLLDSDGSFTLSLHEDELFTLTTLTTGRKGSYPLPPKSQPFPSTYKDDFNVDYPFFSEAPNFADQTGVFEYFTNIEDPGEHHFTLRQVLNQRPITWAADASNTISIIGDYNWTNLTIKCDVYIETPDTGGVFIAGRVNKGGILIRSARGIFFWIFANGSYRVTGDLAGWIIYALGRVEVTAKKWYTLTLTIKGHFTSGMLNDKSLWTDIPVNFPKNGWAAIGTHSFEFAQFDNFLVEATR
In short: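 Fluorescence readout: HMU-β-gal cleavage by mutant GALC (0.1 mM final, citrate/phosphate pH 5.2 with 1 mg/mL taurocholate), stopped with carbonate/bicarbonate plus Triton X-100. Cells: murine Twitcher 145M-Twi expressing human G270D GALC; qHTS for activators.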

activation, inactive:
Cc1ccc(Cn2c(=O)c3ccccc3n3c(-c4ccccc4)nnc23)cc1 -16%
COc1ccc(C2CC(=O)N3CN(C4CCCCC4)CSC3=C2C#N)cc1 (stereo unspecified) -17.3%
COc1cccc(-c2nc(CS(=O)CC(=O)N3CCN(c4cccc(C(F)(F)F)c4)CC3)c(C)o2)c1 (stereo unspecified) -19.1%
Cc1ccc(SCC(=O)Nc2ccc3oc(-c4cccc(C)c4)nc3c2)cc1 -3.21%
Cc1ccc(Cl)cc1NC(=O)CCS(=O)(=O)c1ccc(Br)s1 -2.03%
O=C(Nc1ccc2c(c1)N(C1CCCC1)C(=O)c1ccccc1S2)c1ccccc1 -16.5%
O=C(NCCC1=CCCCC1)c1ccc2c(c1)N(Cc1ccccc1)C(=O)c1ccccc1S2(=O)=O -5.3%
CCOC(=O)c1noc2ncn(CC(=O)O)c(=O)c12 -9.8%
O=C(Cn1cc(SCc2ccccc2Cl)c2ccccc21)N1CCCCCC1 -27.4%
COc1ccc(OC)c(CNS(=O)(=O)c2ccc(-c3cc(C(F)(F)F)on3)s2)c1 1.02%
CCN1C(=O)CC(C(=O)Nc2ccc(OC)cc2)SC1=Nc1ccc(C)c(C)c1 (stereo unspecified) -14%
CCc1cccc(NC(=O)CCS(=O)(=O)c2ccc(C)cc2)c1 -4.07%
CCc1ccc(C2c3c(n[nH]c3C)C(=O)N2c2ccc(C)cc2)cc1 (stereo unspecified) -10.9%
CCOc1ccc(-c2ccc(CO)o2)cc1N -11%
O=C(NC1CCCC1)c1ccc2c(c1)N(Cc1ccc(F)cc1)C(=O)c1ccccc1S2 -10.8%
Cc1ccc(N2CCN(C(=O)c3nn(C)c4c3CSc3ccccc3-4)CC2C)cc1 (stereo unspecified) 1.72%
Cc1ccc(CNC(=O)CN(c2cc(C)cc(C)c2)S(=O)(=O)c2c(C)[nH]c(=O)[nH]c2=O)cc1 -13.2%
COc1ccc(-c2noc(-c3ccccc3NC(=O)c3cc(OC)c(OC)c(OC)c3)n2)cc1 -14.1%
O=S(=O)(Nc1nc2n(n1)C(c1ccccc1)C=C(c1ccc(Cl)cc1)N2)c1ccccc1 (stereo unspecified) -18.2%
COc1ccc(NC(=O)C(Cc2ccccc2)n2cccc2)c(OC)c1 (stereo unspecified) -12.4%
CC(C)CCNC(=O)CSc1nc2ccsc2c(=O)n1Cc1ccccc1Cl -5.52%
OC(CCN1CCCCC1)(c1ccccc1)c1ccccc1 -11.8%
O=C(COc1ccccc1F)Nc1nnc(S(=O)(=O)N2CCCCCC2)s1 -14.9%
CCCCNC(=O)CSc1nc2n[nH]c(C)c2c(=N)n1-c1ccccc1CC -7.72%
COc1ccc(C2CC(=O)c3c([nH]c(C(=O)OCc4ccccc4)c3C)C2)cc1OC (stereo unspecified) -13.6%
CCOc1cc(C2c3c(oc4ccc(F)cc4c3=O)C(=O)N2Cc2ccc(C)cc2)ccc1O (stereo unspecified) -20%
COc1ccc(Nc2nnc(-c3ccc(C)c(S(=O)(=O)N4CCOCC4)c3)c3ccccc23)cc1 -22.8%
O=C(NCc1ccc(Cl)cc1)C1CCCN(c2ncnc3onc(-c4ccc(F)cc4)c23)C1 (stereo unspecified) -5.25%
Cc1cccc(NC(=O)c2c(Br)sc3c2CCCC3)c1 -9.32%
COc1ccccc1N1CCN(C(=O)CSc2nc(-c3ccc(C(C)C)cc3)no2)CC1 -10.8%
CCCCNC(=O)C1CCN(Cc2nc(-c3ccc(OC)c(OC)c3)oc2C)CC1 -5.79%
O=C(NCCCN1CCN(c2ccccc2)CC1)c1cc2c(s1)-c1ccccc1OC2 -14.6%
CCOC(=O)c1c(C)oc2nc(C)nc(NCCCN3CCN(c4cccc(C)c4)C(C)C3)c12 (stereo unspecified) -26.9%
CCC1CN(C(=O)Nc2cccc3c2CCCC3)c2cc(C)ccc2O1 (stereo unspecified) -1.95%
Cc1ccccc1Cc1c(C)nc2nc(SCC(=O)NC(C)c3ccccc3)nn2c1C (stereo unspecified) -7.81%
O=C(Nc1ccc(S(=O)(=O)N2CCC(c3nc4ccccc4s3)CC2)cc1)c1ccccc1F -7.74%
Cc1cccc(C(=O)Nc2ccc(N3CCC(CCN4CCOCC4)CC3)c(C(=O)O)c2)c1 -29.8%
CCCCCOc1ccc(C(=O)N(Cc2ccccc2)C2CCS(=O)(=O)C2)cc1 (stereo unspecified) -10.3%
CCOC(=O)c1nc(Nc2cccc(C)c2)c2ccccc2n1 -13.9%
CCOc1ccc(CNC(=O)CCn2cccn2)cc1OC -13.7%
Cc1ccc2nc(/C(C#N)=C/c3ccc(-c4cccc(Cl)c4)o3)[nH]c2c1 2.25%
CCN(C(=O)NCc1noc2ccccc12)c1cc(C)ccc1C -15.3%
CCC(C(=O)NCCc1ccc(Cl)cc1)n1nc(C)c2c(C)n(-c3ccccc3)nc2c1=O (stereo unspecified) -19.3%
CCN(CCCNC(=O)c1nn(-c2ccc(OC)cc2)c(=O)c2c1c1ccccc1n2C)c1cccc(C)c1 0.593%
COc1ccc(-c2cccc(NS(=O)(=O)c3cc(C)c(Cl)cc3C)c2)nn1 -1.9%
CCCCC12CN3CC(C)(CN(C1)C3c1c(C)[nH]c(=O)[nH]c1=O)C2=O (stereo unspecified) -26.3%
Cc1cccc(CS(=O)(=O)Cc2ccc(C(=O)NCc3ccc(Cl)cc3)o2)c1 -15.8%
CCOc1ccc(NC(=O)CN2C(=O)C(c3ccccc3)=NC23CCCCCC3)cc1 -11.4%
Cc1cccc(Cn2c(C)c(C)c3cc(C(=O)NCc4ccc(C)o4)ccc32)c1 10.8%
Cc1cc(NC(=O)CN(C)S(=O)(=O)c2ccc3c(c2)CCC(=O)N3)ccc1Br -12.2%
CCOc1ccc(CN2C(=O)c3ccccc3Sc3ccc(C(=O)NCc4ccc(C)cc4)cc32)cc1 -20.3%
Cc1ccc(Nc2nccc(N(C)c3ccc4c(C)n(C)nc4c3)n2)cc1S(N)(=O)=O -5.73%
O=C(CSc1oc(-c2ccco2)nc1S(=O)(=O)c1ccc(Cl)cc1)c1ccccc1 5.29%
COc1cccc(CSc2nc3n(n2)C(c2ccccc2C)C(C(=O)Nc2ccccc2OC)=C(C)N3)c1 (stereo unspecified) -12.3%
Cc1nc2nc(SCC(=O)NC(C)c3ccccc3)nn2c(C)c1Cc1c(F)cccc1Cl (stereo unspecified) -16%
CCN(CC)CCNC(=O)c1cc(Br)c(N)cc1OC -3.72%
COCCCn1c(=N)c(C(=O)NC2CCCC2)cc2c(=O)n3ccccc3nc21 -15.2%
Cc1ccc(-c2nc3c4cnn(-c5cc(Cl)ccc5Cl)c4ncn3n2)cc1 2.89%
Cc1ccc(CCNC(=O)CCSCc2ccc(Cl)cc2)cc1 -2.1%
CC(=O)Nc1ccc(NC(=O)CN2C(=O)CN(C)C(=O)c3ccccc32)cc1 -5.82%
CC(C)Cc1nn2c(=O)cc(COC(=O)c3ccccc3NC(=O)c3ccccc3)nc2s1 -4.5%
Cc1ccc(S(=O)(=O)c2nnn3c2nc(Nc2ccc(C(C)C)cc2)c2sccc23)cc1C -8.61%
CCOc1ccc(-n2c(SCc3nc(-c4ccccc4C)no3)nnc2-c2ccccc2)cc1 -4.95%
CN(C)c1ccc(CNc2nc(-c3ccco3)nn2C(=O)c2cccc([N+](=O)[O-])c2)cc1 -15.7%
CCCn1c(=O)c2sccc2n2c(CCCC(=O)NCCOC)nnc12 -6.07%
COc1cccc(CN2C(=O)c3ccccc3C2C(=O)NCCc2ccc(OC)c(OC)c2)c1 (stereo unspecified) -6.62%
CC(C)CC(=O)Nc1ccc(C(=O)OCc2cc(=O)n3nc(C4CCCCC4)sc3n2)cc1 -16.7%
Cc1nc(N2CCCC2)ncc1C(=O)Nc1ccccc1 -8.16%
COc1ccccc1NC(=O)CSc1ncc2c(n1)-c1cc(Cl)ccc1N(C)S2(=O)=O -18.7%
Cc1cc(O)c(C(c2cccc(Cl)c2)N2CCN(c3ccccc3)CC2)c(=O)n1Cc1ccco1 (stereo unspecified) -6.49%
CC(=O)N1CCCc2cc(S(=O)(=O)N3CCCC(C(=O)NCc4ccc(Cl)cc4)C3)ccc21 (stereo unspecified) -24.5%
CN(C)c1ccc(CN(CC2CCCO2)C(=O)COc2ccc(Cl)cc2)cc1 (stereo unspecified) -3.06%
CCc1ccc(-n2c(C)nc3cc(C(=O)NCCc4ccccc4)ccc32)cc1 -12.4%
COc1ccc(NC(=O)Cn2c(=O)n(-c3ccc(Cl)cc3)c(=O)c3c(C)c(C(=O)N(C)C)sc32)cc1Cl -17%
CC(Sc1ncc(S(=O)(=O)c2ccc(C(C)C)cc2)c(N)n1)C(=O)Nc1ccccc1 (stereo unspecified) -5.18%
CCOC(=O)c1cc(-c2ccc(F)cc2)n(CCC(=O)Nc2ccccc2OC)c1C -1.5%
COC(=O)c1ccc2nc(C)cc(Nc3ccc(O)cc3)c2c1 -20.2%
Cc1ccc(CSc2nc(=O)c3c(C)cc(C)nc3n2C2CC2)cc1 -5.35%
Cc1ccc2c(c1)c(=O)c1ccccc1n2CCCC(=O)Nc1ccc(F)cc1F -11.1%
O=C(NC1CC(=O)N(c2ccccc2)C1)C1CCCC1 (stereo unspecified) -19.1%
COc1ccc(Br)c2c1-c1nc(NC(=O)c3ccccc3SC)sc1C2 -4.76%
COCCNC(=O)CSc1nnc(-c2ccc(OC)c(OC)c2)c(-c2ccc(OC)c(OC)c2)n1 -18.3%
CCOc1ccc(N2CC(c3nc4ccccc4n3CCCOc3ccc(OC)cc3)CC2=O)cc1 (stereo unspecified) -17.5%
COC(=O)c1cc(Cl)c(NC(=O)/C=C/c2ccc(Cl)cc2Cl)cc1OC -7.74%
Cc1cccc(C2NC(=O)c3c(sc4c3CCN(C)C4)N2)c1O (stereo unspecified) 1.43%
CCOC(=O)c1ccc(NC2=CC(c3ccc(Br)cc3)N(c3ccc(C(=O)OCC)cc3)C2=O)cc1 (stereo unspecified) 0.337%
Cc1cccc(Oc2nc3c(C)cccn3c(=O)c2/C=C(\C#N)c2nc3ccccc3s2)c1 -18.1%
COc1cccc(Cc2nc3ccccc3nc2SCC(=O)N2CCc3ccccc32)c1 -6.33%
CCOC(=O)c1ccc(NC(=O)C(=O)NCc2ccco2)cc1 -11.7%
Cc1c(C(=O)NCCN(C)C)oc2c1-c1nn(Cc3ccccc3Cl)cc1CC2 -11.4%
CC(Sc1nc(-c2ccccc2)c(C#N)c(=O)[nH]1)C(=O)Nc1ccc(F)cc1 (stereo unspecified) -12%
CCOC(=O)c1ccc(Nc2nc(C)cc(C)n2)cc1 -9.96%
COc1ccc(N(CC(=O)N2CCN(c3cc(C)ccc3C)CC2)S(=O)(=O)c2c(C)noc2C)cc1 -10.2%
COc1ccccc1-c1c(C)nn2c(N3CCN(c4ccc(Cl)cc4)CC3)cc(C)nc12 -3.07%
CC1=C(C(=O)Nc2ccccc2)C(c2ccc(C(=O)O)cc2)n2nc(SCC(=O)c3ccc(C)cc3)nc2N1 (stereo unspecified) -13.4%
CC(C)CCn1c(SCc2ccc(F)cc2Cl)nc2ccsc2c1=O -4.9%
